For some assays here: Shown are results outside the selection of hits, which stands elsewhere. Inconclusive results are not listed. This is a selection; strong and weak results do not stand in their true shares. Calls of active or inactive are those of the source. How the source made its calls, unless noted: active means hit-call score of the fitted dose curve at least 0.9, where 1 is the maximum; inconclusive means response in the unintended direction; inactive means score below 0.9.
Legend:
[1] = molecular target: Peroxisome proliferator-activated receptor gamma (Homo sapiens) (UniProt P37231); test: ATG_PPARg_TRANS: Attagene TRANS-FACTORIAL HepG2 Assay for human Peroxisome Proliferator-activated Receptor-gamma (PPARg) (AID 2283007)
Sequence of UniProt P37231 (P37231 whole entry, looked up, the tested form may be a part): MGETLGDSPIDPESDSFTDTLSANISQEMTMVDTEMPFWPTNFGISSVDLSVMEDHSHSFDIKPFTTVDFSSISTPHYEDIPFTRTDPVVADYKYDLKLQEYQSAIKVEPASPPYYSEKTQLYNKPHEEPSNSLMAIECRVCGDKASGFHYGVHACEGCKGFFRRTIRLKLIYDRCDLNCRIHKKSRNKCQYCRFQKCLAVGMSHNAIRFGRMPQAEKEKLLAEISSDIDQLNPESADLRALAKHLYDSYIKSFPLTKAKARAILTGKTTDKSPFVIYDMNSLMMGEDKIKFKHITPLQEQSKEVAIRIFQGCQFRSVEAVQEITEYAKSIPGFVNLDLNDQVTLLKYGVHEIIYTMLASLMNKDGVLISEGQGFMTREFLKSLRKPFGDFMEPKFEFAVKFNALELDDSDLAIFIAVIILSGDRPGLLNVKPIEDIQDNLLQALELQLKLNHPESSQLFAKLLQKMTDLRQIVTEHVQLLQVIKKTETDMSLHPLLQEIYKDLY
Summary of the method: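 HepG2 cells transiently transfected with multiplexed GAL4-UAS reporter units and exogenous chimeric NR-Gal4 proteins; reporter mRNA quantified after 24 h compound exposure by RT-PCR, fluorescent labelling, HpaI digestion and capillary electrophoresis; gain-of-signal fitted versus DMSO baseline.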

[2] = molecular target: human Retinoic Acid Receptor beta (RARb), RARB (gene 5915) (UniProt P10826); test: ATG_RARb_TRANS: Attagene TRANS-FACTORIAL HepG2 Assay for human Retinoic Acid Receptor beta (AID 2283004)
Sequence of UniProt P10826 (P10826 whole entry, looked up, the tested form may be a part): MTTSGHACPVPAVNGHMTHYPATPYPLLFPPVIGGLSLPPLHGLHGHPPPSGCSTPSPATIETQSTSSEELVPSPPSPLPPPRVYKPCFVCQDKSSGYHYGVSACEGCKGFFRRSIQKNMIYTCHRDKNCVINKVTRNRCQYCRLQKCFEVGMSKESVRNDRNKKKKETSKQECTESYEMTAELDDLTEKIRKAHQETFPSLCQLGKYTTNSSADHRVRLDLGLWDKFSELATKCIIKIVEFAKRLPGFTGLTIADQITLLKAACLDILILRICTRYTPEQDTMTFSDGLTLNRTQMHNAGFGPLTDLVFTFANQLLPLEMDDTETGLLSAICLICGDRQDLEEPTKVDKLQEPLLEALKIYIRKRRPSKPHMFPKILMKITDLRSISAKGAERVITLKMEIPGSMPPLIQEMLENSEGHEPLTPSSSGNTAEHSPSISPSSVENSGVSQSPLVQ
Summary of the method: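 Induction of reporter mRNA from a chimeric RARb-Gal4 construct was measured by RT-PCR, FAM labelling, HpaI digestion and capillary electrophoresis. Measurements followed 24 h compound treatment of transiently transfected human HepG2 liver cells, with DMSO as baseline.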

[3] = molecular target: human Retinoic Acid Receptor gamma (RARg), RARG (gene 5916) (UniProt P13631); test: ATG_RARg_TRANS: Attagene TRANS-FACTORIAL HepG2 Assay for human Retinoic Acid Receptor gamma (RARg) (AID 2283009)
Sequence of human Retinoic Acid Receptor gamma (RARg), RARG (gene 5916) (P13631 whole entry, looked up, the tested form may be a part): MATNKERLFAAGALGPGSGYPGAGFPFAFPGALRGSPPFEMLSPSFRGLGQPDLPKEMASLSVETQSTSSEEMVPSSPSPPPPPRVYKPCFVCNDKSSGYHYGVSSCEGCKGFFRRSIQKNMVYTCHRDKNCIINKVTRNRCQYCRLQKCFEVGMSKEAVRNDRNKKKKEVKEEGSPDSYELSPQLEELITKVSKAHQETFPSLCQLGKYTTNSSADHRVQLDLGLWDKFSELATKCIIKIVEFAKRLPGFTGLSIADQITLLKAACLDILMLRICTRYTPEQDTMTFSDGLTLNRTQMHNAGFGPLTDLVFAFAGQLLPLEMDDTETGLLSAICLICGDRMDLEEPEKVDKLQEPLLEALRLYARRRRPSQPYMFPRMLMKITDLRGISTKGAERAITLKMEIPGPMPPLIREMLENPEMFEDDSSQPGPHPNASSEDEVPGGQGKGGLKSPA
Summary of the method: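 Transactivation of exogenous RARg-Gal4 fusion measured as reporter transcript induction after 24 h in transfected HepG2 cells. RNA reverse-transcribed, amplified, fluorescently labeled and resolved by capillary electrophoresis; increase relative to DMSO.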

[4] = molecular target: human RAR-related Orphan Receptor gamma (RORg), RORC (gene 6097) (UniProt P51449); test: ATG_RORg_TRANS: Attagene TRANS-FACTORIAL HepG2 Assay for human RAR-related Orphan Receptor gamma (RORg) (AID 2283011)
Sequence of UniProt P51449 (P51449 whole entry, looked up, the tested form may be a part): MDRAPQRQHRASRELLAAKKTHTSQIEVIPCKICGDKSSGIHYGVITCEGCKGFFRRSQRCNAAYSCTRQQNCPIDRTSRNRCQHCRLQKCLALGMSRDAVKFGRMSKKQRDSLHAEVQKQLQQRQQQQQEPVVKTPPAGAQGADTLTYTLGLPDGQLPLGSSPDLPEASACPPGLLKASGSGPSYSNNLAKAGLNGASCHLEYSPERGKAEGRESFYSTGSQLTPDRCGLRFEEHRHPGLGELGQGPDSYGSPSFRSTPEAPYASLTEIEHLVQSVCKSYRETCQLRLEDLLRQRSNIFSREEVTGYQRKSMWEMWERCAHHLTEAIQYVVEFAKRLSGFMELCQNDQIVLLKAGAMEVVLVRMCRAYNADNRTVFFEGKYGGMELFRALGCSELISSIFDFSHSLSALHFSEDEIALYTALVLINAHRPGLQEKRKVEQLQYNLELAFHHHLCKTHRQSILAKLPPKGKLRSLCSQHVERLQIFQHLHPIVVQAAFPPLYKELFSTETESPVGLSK
Summary of the method: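 Reporter transcripts from a transfected RORg-GAL4 chimera in HepG2 cells were quantified 24 h after dosing by RT-PCR, 6-FAM labelling, HpaI digestion and capillary electrophoresis; increases over DMSO baseline were fitted.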

[5] = molecular target: human Retinoid X Receptor beta (RXRb), RXRB (gene 6257) (UniProt P28702); test: ATG_RXRb_TRANS: Attagene TRANS-FACTORIAL HepG2 Assay for human Retinoid X Receptor beta (RXRb) (AID 2283013)
Sequence of UniProt P28702 (P28702 whole entry, looked up, the tested form may be a part): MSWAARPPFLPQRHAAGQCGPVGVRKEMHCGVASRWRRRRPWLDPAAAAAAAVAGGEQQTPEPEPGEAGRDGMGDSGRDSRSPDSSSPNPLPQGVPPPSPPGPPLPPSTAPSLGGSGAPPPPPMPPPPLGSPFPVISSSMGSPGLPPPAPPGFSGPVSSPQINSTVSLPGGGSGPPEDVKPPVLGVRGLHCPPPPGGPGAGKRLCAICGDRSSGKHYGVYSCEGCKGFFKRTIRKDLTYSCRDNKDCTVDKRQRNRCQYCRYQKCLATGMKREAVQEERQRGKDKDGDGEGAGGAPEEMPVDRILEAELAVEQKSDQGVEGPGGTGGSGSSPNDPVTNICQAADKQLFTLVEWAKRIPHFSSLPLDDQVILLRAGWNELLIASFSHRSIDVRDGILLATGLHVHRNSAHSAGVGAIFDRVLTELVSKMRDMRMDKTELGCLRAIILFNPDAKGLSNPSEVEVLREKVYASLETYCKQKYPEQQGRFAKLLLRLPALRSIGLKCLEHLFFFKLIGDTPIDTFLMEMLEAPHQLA
Summary of the method: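 Readout is reporter transcript induction after 24 h dosing. It is measured by RT-PCR of total RNA followed by fluorescent capillary electrophoresis. HepG2 liver cells carry transfected multiple reporter units driven by an exogenous RXRb-Gal4 fusion; activity is relative to DMSO.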

[6] = read-out: Plasminogen activator inhibitor-1 (PAI1), SERPINE1 (gene 5054); test: BSK_hDFCGF_PAI1: BioMAP Diversity Plus: hDFCGF Assay for Plasminogen activator inhibitor-1 (PAI1) Biomarker Activity (AID 2283066; active means hit-call score of the fitted dose curve at least 0.9, where 1 is the maximum; inactive means score below 0.9); details: actives raise or lower the signal; primary human foreskin fibroblasts
Summary of the method: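 PAI-1 levels in human dermal foreskin fibroblasts were quantified by ELISA 24 h after dosing, with gain or loss analysed against DMSO. Overt cytotoxicity was checked by sulforhodamine B total-protein staining in parallel cultures.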

[7] = read-out: C-C motif chemokine 2 (Homo sapiens) (UniProt P13500); test: BSK_KF3CT_MCP1: BioMAP Diversity Plus: KF3CT Assay for Monocyte Chemoattractant Protein 1 (MCP1/CCL2) Biomarker Activity (AID 2283073; active means hit-call score of the fitted dose curve at least 0.9, where 1 is the maximum; inactive means score below 0.9); details: actives raise or lower the signal; primary human keratinocytes with fibroblasts
Summary of the method: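 ELISA read-out of MCP-1, 24 h post-dose, in primary human skin keratinocytes co-cultured with fibroblasts. Parallel SRB staining monitors cytotoxicity; changes fitted both directions relative to DMSO.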

[8] = BSK_LPS_SRB: Viability Assessment in the BioMAP Diversity Plus: LPS Assay (AID 2283079; active means hit-call score of the fitted dose curve at least 0.9, where 1 is the maximum; inactive means score below 0.9;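 further: total protein by sulforhodamine B absorbance as a cytotoxicity measure; measured one day after compound addition; fitted in both directions against DMSO so loss or gain of signal counts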); details: primary human HUVEC with PBMC
Summary of the method: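 SRB viability endpoint: cells fixed with 10% TCA, stained with 0.1% SRB, read at 560 nm, 24 h post-dose. HUVEC/PBMC co-culture; signal change in either direction scored relative to DMSO.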

[9] = CCTE_Mundy_HCI_Cortical_Synap_Neur_Matur_NeuriteLength: CCTE's Synaptogenesis and Neurite Maturation Assay in rat cortical cells for Neurite Length, Mundy Lab (AID 2284214; active means hit-call score of the fitted dose curve at least 0.9, where 1 is the maximum; inactive means score below 0.9)
Summary of the method: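 Neurite length quantified by automated high-content imaging of MAP2, synaptophysin and Hoechst staining. Rat cortical cells received chemical from DIV 7 to DIV 12 […], glial growth arrested by AraC at DIV 5; DMSO baseline.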

[10] = molecular target: human Peroxisome Proliferator-activated Receptor alpha (PPARa), PPARA (gene 5465) (UniProt Q07869); test: ATG_PPARa_TRANS: Attagene TRANS-FACTORIAL HepG2 Assay for human Peroxisome Proliferator-activated Receptor alpha (PPARa) (AID 2283001)
Sequence of UniProt Q07869 (Q07869 whole entry, looked up, the tested form may be a part): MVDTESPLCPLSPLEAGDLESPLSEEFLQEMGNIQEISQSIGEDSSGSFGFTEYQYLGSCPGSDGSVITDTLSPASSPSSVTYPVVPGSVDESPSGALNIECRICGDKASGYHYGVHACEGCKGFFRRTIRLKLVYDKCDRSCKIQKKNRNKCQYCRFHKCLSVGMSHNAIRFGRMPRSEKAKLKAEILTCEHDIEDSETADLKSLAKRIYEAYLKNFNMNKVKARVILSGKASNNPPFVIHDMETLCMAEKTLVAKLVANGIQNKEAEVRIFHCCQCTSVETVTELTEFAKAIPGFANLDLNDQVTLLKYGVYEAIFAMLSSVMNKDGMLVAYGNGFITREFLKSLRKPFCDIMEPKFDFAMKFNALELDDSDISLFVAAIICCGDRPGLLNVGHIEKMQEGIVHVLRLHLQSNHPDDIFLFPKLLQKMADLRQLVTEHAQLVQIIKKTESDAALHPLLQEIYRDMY
Summary of the method: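 Reporter transcripts quantified by RT-PCR plus capillary electrophoresis after 24 h treatment, fitted upward relative to DMSO. Cells: human HepG2 transiently carrying multiple GAL4-UAS reporter units driven by NR-Gal4 chimeras.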

[11] = molecular target: human Peroxisome Proliferator-activated Receptor delta (PPARd), PPARD (gene 5467) (UniProt Q03181); test: ATG_PPARd_TRANS: Attagene TRANS-FACTORIAL HepG2 Assay for human Peroxisome Proliferator-activated Receptor delta (PPARd) (AID 2283002)
Sequence of UniProt Q03181 (Q03181 whole entry, looked up, the tested form may be a part): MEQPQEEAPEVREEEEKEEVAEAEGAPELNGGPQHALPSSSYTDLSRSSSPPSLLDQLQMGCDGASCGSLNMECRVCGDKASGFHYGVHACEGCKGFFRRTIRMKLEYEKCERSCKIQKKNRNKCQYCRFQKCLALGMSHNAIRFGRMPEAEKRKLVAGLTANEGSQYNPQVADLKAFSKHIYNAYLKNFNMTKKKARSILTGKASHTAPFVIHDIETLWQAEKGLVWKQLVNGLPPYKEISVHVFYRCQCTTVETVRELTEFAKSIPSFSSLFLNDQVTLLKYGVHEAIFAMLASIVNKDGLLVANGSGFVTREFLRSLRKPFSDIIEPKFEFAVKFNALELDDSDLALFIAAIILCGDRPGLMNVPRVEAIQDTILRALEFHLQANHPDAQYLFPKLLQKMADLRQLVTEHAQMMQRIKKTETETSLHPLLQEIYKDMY
Summary of the method: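 Read-out is induced reporter mRNA, quantified by RT-PCR with fluorescent labelling and capillary electrophoresis after 24 h dosing. Cells are HepG2 transiently carrying multiple GAL4-UAS reporter units driven by exogenous NR-GAL4 chimeras; DMSO serves as baseline.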

[12] = read-out: Monocyte Chemoattractant Protein-1 (MCP1), CCL2 (gene 6347); test: BSK_3C_MCP1: BioMAP Diversity Plus: 3C Assay for Monocyte Chemoattractant Protein-1 (MCP1) Biomarker Activity (AID 2283017; active means hit-call score of the fitted dose curve at least 0.9, where 1 is the maximum; inactive means score below 0.9); details: actives raise or lower the signal; primary human endothelial cells (HUVEC)
Summary of the method: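 MCP-1 was measured by ELISA 24 h after dosing in primary HUVEC 3C cultures and fitted in both directions relative to DMSO; cytotoxicity was checked by SRB total-protein staining in parallel wells.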

[13] = read-out: Vascular endothelial growth factor receptor 2 (Homo sapiens) (UniProt P35968); test: BSK_4H_VEGFRII: BioMAP Diversity Plus: 4H Assay for Vascular endothelial growth factor receptor 2 (VEGFR2) Biomarker Activity (AID 2283031; active means hit-call score of the fitted dose curve at least 0.9, where 1 is the maximum; inactive means score below 0.9;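 further: cell-surface VEGFR2 protein level quantified by ELISA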); details: actives raise or lower the signal; primary human endothelial cells (HUVEC)
Summary of the method: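 Measured by ELISA after 24 h of compound treatment: VEGFR2 on primary human umbilical vein endothelial cells, fitted in both directions relative to DMSO. Parallel cultures received SRB staining (560 nm) for overt cytotoxicity.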

[14] = BSK_CASM3C_Proliferation: Cell Proliferation Assessment in the BioMAP Diversity Plus: CASM3C Assay (AID 2283047; active means hit-call score of the fitted dose curve at least 0.9, where 1 is the maximum; inactive means score below 0.9;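 further: sulforhodamine B total protein stain as relative cell number at 560 nm; sub-confluent cells exposed 48 h before staining; fitted both ways against DMSO so gain or loss of cell number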); details: primary human coronary artery smooth muscle cells
[15] = read-out: Cellular tumor antigen p53 (Homo sapiens) (UniProt P04637); test: LTEA_HepaRG_TP53: Life Technologies and Expression Analysis (LTEA) Assay for Tumor Protein P53 (TP53) using HepaRG (AID 2283537; active means hit-call score of the fitted dose curve at least 0.9, where 1 is the maximum; inactive means score below 0.9); details: actives raise or lower the signal; mRNA level, 48 h
Sequence of UniProt P04637 (P04637 whole entry, looked up): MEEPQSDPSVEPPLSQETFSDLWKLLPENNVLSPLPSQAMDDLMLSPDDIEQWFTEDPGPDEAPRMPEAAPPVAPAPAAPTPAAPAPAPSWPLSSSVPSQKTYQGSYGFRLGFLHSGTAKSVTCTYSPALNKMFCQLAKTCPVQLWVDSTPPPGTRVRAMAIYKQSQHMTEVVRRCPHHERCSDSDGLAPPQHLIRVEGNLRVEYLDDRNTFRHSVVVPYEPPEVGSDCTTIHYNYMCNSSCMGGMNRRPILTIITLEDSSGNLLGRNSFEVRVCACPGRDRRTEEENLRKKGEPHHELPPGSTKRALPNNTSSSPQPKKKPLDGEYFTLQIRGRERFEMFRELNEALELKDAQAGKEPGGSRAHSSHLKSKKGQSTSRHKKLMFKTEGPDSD
Summary of the method: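 TP53 transcript measured by qRT-PCR, normalized to three housekeeping genes, after 48 h treatment of human HepaRG cultures with chemicals from 100 uM downward in half-log steps (0.5% DMSO vehicle, serum-free induction medium). Up- or down-regulation fitted against DMSO.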

Sequence of C-C motif chemokine 2 (Homo sapiens) (P13500 whole entry, looked up): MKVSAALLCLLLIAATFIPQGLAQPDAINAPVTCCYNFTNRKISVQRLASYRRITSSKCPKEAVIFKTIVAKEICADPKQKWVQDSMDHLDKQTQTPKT

**Q.** For `CNC(=O)Oc1cc(C)c(SC)c(C)c1`, which AC50 [1] is on record?
**A.** The AC50 was active: 19.8 µM.

**Q.** With `O=S1OCC2C(CO1)C1(Cl)C(Cl)=C(Cl)C2(Cl)C1(Cl)Cl` (stereo not given) as the compound, how does the outcome [2] read?
**A.** The outcome was “inactive”.

**Q.** And the outcome [3]?
**A.** Its outcome is “inactive”.

**Q.** And the outcome [4]?
**A.** Its outcome is “inactive”.

**Q.** And the outcome [5]?
**A.** Its outcome is “inactive”.

**Q.** What about the AC50 [6] of the same compound?
**A.** The AC50 was active: 27.4 µM.

**Q.** And the AC50 [7]?
**A.** The AC50 was active: 30.6 µM.

**Q.** What about the AC50 [8] of the same compound?
**A.** Its AC50 is active: 29.6 µM.

**Q.** What about the AC50 [9] of the same compound?
**A.** Its AC50 is active: 19.9 µM.

**Q.** With `CCOP(=S)(OCC)SCS(=O)(=O)C(C)(C)C` as the compound, how does the outcome [10] read?
**A.** Its outcome is “inactive”.

**Q.** With `CC(C=O)Cc1ccc2c(c1)OCO2` (stereo not given) as the compound, how does the outcome [2] read?
**A.** The outcome was “inactive”.

**Q.** With `C(=NC1CCCCC1)=NC1CCCCC1` as the compound, how does the outcome [11] read?
**A.** Its outcome is “inactive”.

**Q.** What about the AC50 [12] of the same compound?
**A.** Its AC50 is active: 25.2 µM.

**Q.** And the AC50 [13]?
**A.** The AC50 was active: 5.31 µM.

**Q.** What about the AC50 [14] of the same compound?
**A.** Its AC50 is active: 25.6 µM.

**Q.** Which outcome [10] does the source give for `N#Cc1ccccn1` here?
**A.** Its outcome is “inactive”.

**Q.** For `Cc1cc(C2CC2)nc(Nc2ccccc2)n1`, which outcome [2] is on record?
**A.** The outcome was “inactive”.

**Q.** Which outcome [11] does the source give for `N#Cc1cc(I)c(O)c(I)c1` here?
**A.** The outcome was “inactive”.

**Q.** Which AC50 [1] does the source give for `O=C(O)C(F)(F)C(F)(F)C(F)(F)C(F)(F)C(F)(F)C(F)(F)C(F)(F)C(F)(F)C(F)(F)F` here?
**A.** The AC50 was active: 16.1 µM.

**Q.** What about the AC50 [15] of the same compound?
**A.** Its AC50 is active: 88.4 µM.
